Laboratory results reported in the RNAGym collection of RNA variant scans (doi:10.7554/elife.90254).
Read counts are not given, so values of variants with three or more changes are uncertain.

B1: LINE1-full (parent)
chain: UACGUAGGUGGUUUUCCCCUGAUAGUGCUAAGGGGGCCUGGAAGUUUGGACUGGGCAGAGCUCAACACAGCGUGGCAAAGUGGCUGUGGCUAGACUGCCUCUCUGGAUUCCUCGUCACUCAGCAGGGCAUCUCUGAGAGAAAUGCC

Variants of: B1
Assay: self-cleavage, relative activity (ratio to wild type); higher = more cleavage; in vitro, sequencing; the parent is a self-cleaving ribozyme
In the case of UACGUAGGUGGUUUUCCCCUGAUAGUGCUAAGGGGGCCUGGAAGUUUGGACUGGGCAGAGCUCAACACAGCGUGGCAAAGUGGCUGUGGCUAGACUGCCUCUCUGGAUUCCCCGUCACUCAGCAGGGCAUCUCUGAGGGAAACGCC, the self-cleavage is reported as 2.11.
Work on UACGUAGGUGGUUUUCCCCUGAUAGUGCUAAGGGGGCCUGGAAGUUUGGACUGGGCAGAGCUCAACACAGCGUGGCAAAGUGGCUGUGGCUAGACUGCCUCUCUGGAUACCUCGUCACUCAGCGGGGCAUCUCUGAGAGAGAUGCC yielded a self-cleavage of 1.43.
Variant UACGUAGGUGGUUUUCCCCUGAUAGUGCUAAGGGGGCCUGGAAGUUUGGACUGGGCAGAGCUCAACACAGCGUGGCAAAGUGGCUGUGGCUAGACUGCCUCUCUGGAUUCCCCGCCACUCAGCAGGGCAUCUCUGAGAGAAGUGCC has a self-cleavage of 0.49.
For UACGUAGGUGGUUUUCCCCUGAUAGUGCUAAGGGGGCCUGGAAGUUUGGACUGGGCAGAGCUCAACACAGCGUGGCAAAGUGGCUGUGGCUAGACUGCCUCUCUGGAUUCCACGUCACACAGCAGGGCAUCUCUGAGGGAAAUGCC, the self-cleavage was 1.26.
Variant UACGUAGGUGGUUUUCCCCUGAUAGUGCUAAGGGGGCCUGGAAGUUUGGACUGGGCAGAGCUCAACACAGCGUGGCAAAGUGGCUGUGGCUAGACUGCCUCUCUGGAUCCCUCGUCACUCUGCAGGGCAUCUCUGAGAGAGAUGCC has a self-cleavage of 1.5.
Work on UACGUAGGUGGUUUUCCCCUGAUAGUGCUAAGGGGGCCUGGAAGUUUGGACUGGGCAGAGCUCAACACAGCGUGGCAAAGUGGCUGUGGCUAGACUGCCUCUCUGGAUUCCCCGUCACUCAGCAGGGCAUCCCUGAGAGAGAUGCC yielded a self-cleavage of 1.73.
UACGUAGGUGGUUUUCCCCUGAUAGUGCUAAGGGGGCCUGGAAGUUUGGACUGGGCAGAGCUCAACACAGCGUGGCAAAGUGGCUGUGGCUAGACUGCCUCUCUGGAUUCCACGUCACUCAGCAGGGCUUCUCUGAGAGAGAUGCC gave a self-cleavage of 1.68.
UACGUAGGUGGUUUUCCCCUGAUAGUGCUAAGGGGGCCUGGAAGUUUGGACUGGGCAGAGCUCAACACAGCGUGGCAAAGUGGCUGUGGCUAGACUGCCUCUCUGGAUUCCUAGUCACUCAGCGGGGCUUCUCUGAGAGAAAUGCC showed a self-cleavage of 0.55.
For UACGUAGGUGGUUUUCCCCUGAUAGUGCUAAGGGGGCCUGGAAGUUUGGACUGGGCAGAGCUCAACACAGCGUGGCAAAGUGGCUGUGGCUAGACUGCCUCUCUGGAUUCCCCGUCACUCAGCAGGGCAUCUCAGAGAGAUAUGCC, the self-cleavage was 1.
UACGUAGGUGGUUUUCCCCUGAUAGUGCUAAGGGGGCCUGGAAGUUUGGACUGGGCAGAGCUCAACACAGCGUGGCAAAGUGGCUGUGGCUAGACUGCCUCUCUGGAUUUCUCGUCACUCAGCAGGGCAUCUCUGAGAGGGAUGCC showed a self-cleavage of 1.85.
Work on UACGUAGGUGGUUUUCCCCUGAUAGUGCUAAGGGGGCCUGGAAGUUUGGACUGGGCAGAGCUCAACACAGCGUGGCAAAGUGGCUGUGGCUAGACUGCCUCUCUGGAUCCCUCGUCACUCAGCAGGGCAUCUCUGGGAGAAACGCC yielded a self-cleavage of 0.97.
Work on UACGUAGGUGGUUUUCCCCUGAUAGUGCUAAGGGGGCCUGGAAGUUUGGACUGGGCAGAGCUCAACACAGCGUGGCAAAGUGGCUGUGGCUAGACUGCCUCUCUGGAUUCCCCGUCACUCAGCAGGGCAUCUCAGAGAGAAACGCC yielded a self-cleavage of 0.34.
In the case of UACGUAGGUGGUUUUCCCCUGAUAGUGCUAAGGGGGCCUGGAAGUUUGGACUGGGCAGAGCUCAACACAGCGUGGCAAAGUGGCUGUGGCUAGACUGCCUCUCUGGAUCCCUCGUCACCCAGCAGGGCAUCUCUGAGAGAAACGCC, the self-cleavage is reported as 1.67.
In the case of UACGUAGGUGGUUUUCCCCUGAUAGUGCUAAGGGGGCCUGGAAGUUUGGACUGGGCAGAGCUCAACACAGCGUGGCAAAGUGGCUGUGGCUAGACUGCCUCUCUGGAUUCCCAGUCAUUCAGCAGGGCAUCUCUGAGAGAAAUGCC, the self-cleavage is reported as 0.33.
In the case of UACGUAGGUGGUUUUCCCCUGAUAGUGCUAAGGGGGCCUGGAAGUUUGGACUGGGCAGAGCUCAACACAGCGUGGCAAAGUGGCUGUGGCUAGACUGCCUCUCUGGAUUCCACGACACUCAGCAGGGCAUCUCAGAGAGAAAUGCC, the self-cleavage is reported as 1.52.
With UACGUAGGUGGUUUUCCCCUGAUAGUGCUAAGGGGGCCUGGAAGUUUGGACUGGGCAGAGCUCAACACAGCGUGGCAAAGUGGCUGUGGCUAGACUGCCUCUCUGGAUUCCACGUCACUCAGCAGGGCAUCUCUGAGAGGAACGCC the self-cleavage was 1.44.
Work on UACGUAGGUGGUUUUCCCCUGAUAGUGCUAAGGGGGCCUGGAAGUUUGGACUGGGCAGAGCUCAACACAGCGUGGCAAAGUGGCUGUGGCUAGACUGCCUCUCUGGAUUCCCCGUCACUCAGCAGGGCAUUUCUGAGAGGAAUGCC yielded a self-cleavage of 1.89.
Work on UACGUAGGUGGUUUUCCCCUGAUAGUGCUAAGGGGGCCUGGAAGUUUGGACUGGGCAGAGCUCAACACAGCGUGGCAAAGUGGCUGUGGCUAGACUGCCUCUCUGGAUUCCACGUCCCUCAGCAGGGCACCUCUGAGAGAAAUGCC yielded a self-cleavage of 1.78.
UACGUAGGUGGUUUUCCCCUGAUAGUGCUAAGGGGGCCUGGAAGUUUGGACUGGGCAGAGCUCAACACAGCGUGGCAAAGUGGCUGUGGCUAGACUGCCUCUCUGGAUUCCACGUCGCUCAGCAGGGCAUCUCUGAGAGAUAUGCC showed a self-cleavage of 1.46.
UACGUAGGUGGUUUUCCCCUGAUAGUGCUAAGGGGGCCUGGAAGUUUGGACUGGGCAGAGCUCAACACAGCGUGGCAAAGUGGCUGUGGCUAGACUGCCUCUCUGGAUACCUCGCCACUCAGCAGGGCAACUCUGAGAGAAAUGCC gave a self-cleavage of 2.06.
